Laboratory results published in publication PMC4336329 (PLoS ONE, 2015).
The whole screen tested about 310,000 compounds, of which about 2,200 (0.71%) showed an effect of 50% or more. The effect is printed as a negative number. The list shows a part of the results.

What follows are compounds tested against human ether-à-go-go-related gene (hERG) potassium channel (human, UniProt Q12809) (assay: primary screen, population patch clamp on CHO cells stably expressing hERG).
human ether-à-go-go-related gene (hERG) potassium channel, sequence (Q12809 whole entry, looked up): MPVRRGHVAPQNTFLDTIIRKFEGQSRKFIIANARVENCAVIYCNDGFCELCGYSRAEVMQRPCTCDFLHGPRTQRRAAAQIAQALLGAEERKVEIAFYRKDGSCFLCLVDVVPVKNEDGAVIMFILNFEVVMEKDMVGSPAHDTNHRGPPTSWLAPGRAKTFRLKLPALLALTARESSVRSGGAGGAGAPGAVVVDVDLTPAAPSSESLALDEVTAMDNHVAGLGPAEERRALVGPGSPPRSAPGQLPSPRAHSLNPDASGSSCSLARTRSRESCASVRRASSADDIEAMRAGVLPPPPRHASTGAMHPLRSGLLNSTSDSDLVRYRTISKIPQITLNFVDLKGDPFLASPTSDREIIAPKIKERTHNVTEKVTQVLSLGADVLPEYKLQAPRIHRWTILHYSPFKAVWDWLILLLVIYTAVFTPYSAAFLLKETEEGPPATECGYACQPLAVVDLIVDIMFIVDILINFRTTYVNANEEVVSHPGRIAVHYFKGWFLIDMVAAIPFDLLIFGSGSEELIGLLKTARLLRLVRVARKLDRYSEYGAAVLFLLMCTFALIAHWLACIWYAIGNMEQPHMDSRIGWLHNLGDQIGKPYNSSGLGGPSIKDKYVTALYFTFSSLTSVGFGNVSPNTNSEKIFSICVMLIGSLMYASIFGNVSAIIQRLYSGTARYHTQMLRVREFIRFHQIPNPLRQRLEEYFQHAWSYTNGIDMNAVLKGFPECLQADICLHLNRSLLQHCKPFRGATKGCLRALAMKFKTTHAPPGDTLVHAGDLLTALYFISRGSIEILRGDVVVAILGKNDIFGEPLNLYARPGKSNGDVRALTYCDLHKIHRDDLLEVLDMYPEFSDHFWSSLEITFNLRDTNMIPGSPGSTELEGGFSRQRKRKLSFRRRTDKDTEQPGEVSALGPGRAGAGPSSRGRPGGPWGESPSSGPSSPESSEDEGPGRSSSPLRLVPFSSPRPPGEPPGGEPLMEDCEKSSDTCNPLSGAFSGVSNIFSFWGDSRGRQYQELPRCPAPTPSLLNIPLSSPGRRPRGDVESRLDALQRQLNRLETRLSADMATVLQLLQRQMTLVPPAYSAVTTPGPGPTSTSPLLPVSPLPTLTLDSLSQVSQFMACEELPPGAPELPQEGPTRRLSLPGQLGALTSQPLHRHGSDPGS

Compound	hERG current change (%, negative = inhibition) at 1uM [%]
COc1ccc(CC(=O)Nc2cccc3c2CCCC3)cc1	13.5
CCCOc1ccc(S(=O)(=O)NCCCN2CCOCC2)c2ccccc12	-7.58
CC(C)C[C@H](NC(=O)c1nc[nH]c1C(=O)NCC(=O)OCc1ccccc1)C(=O)OCc1ccccc1	9.45
CCCOc1cccc(C(=O)Nc2nnn(CCC)n2)c1	7.37
COC(=O)c1cc2c(s1)=NC=NP=2(N1CCOCC1)N1CCOCC1	16.3
Cc1cc(C)cc(NC(=O)C2CCCN(c3nccc(C)n3)C2)c1 (stereo not shown)	5.05
CCN(CC)C(=O)c1sc(N)c(C(=O)OC(C)C)c1C	7.32
CCc1cc(Cl)c(OC)c(C(=O)NC[C@@H]2CCCN2CC)c1O.Cl	-18.7
CC1(C)Cc2c(c(-c3ccco3)[nH]c(=O)c2C#N)CS1	-3.55
O=c1c2ccccc2oc2cc(OCc3cccc(F)c3)cc(O)c12	12.3
Cc1ccc(C2CC(C(F)(F)F)n3ncc(C(=O)NCc4ccco4)c3N2)cc1 (stereo not shown)	1.05
O=C1N(Cc2ccccc2F)c2ccccc2C12OCCCO2	3.67
CC(Oc1ccccc1Cl)c1nnc(N)s1 (stereo not shown)	4.77
CC1(C)OC1COc1c2ccoc2cc2oc(=O)ccc12 (stereo not shown)	0.408
O=S(=O)(c1ccccc1)N1CCN(c2nc3ccccc3s2)CC1	12.9
CCC(C)(C)NC(=O)C(c1ccc(OC)cc1)N(C(=O)CCC(=O)Nc1cc(C)on1)c1cccc(F)c1 (stereo not shown)	5.55
Nc1nc(SCC(=O)c2c(N)n(Cc3ccccc3)c(=O)[nH]c2=O)n[nH]1	-1.49
COc1ccc(N2C(=O)c3ccccc3NC23CCCCC3)cc1	12.4
O=C(COc1ccccc1)NC(=S)N1CCc2ccccc21	10.7
CCN(CC)S(=O)(=O)c1ccc(N2CCN(c3ccccc3O)CC2)nc1	-14.8
CCc1ccc(Nc2n[n+](-c3ccccc3)c(-c3ccc(OCc4ccccc4)cc3)s2)cc1.[Cl-]	-7.79
O=C(O)c1ccc(N2C(=O)CC(N3CCN(c4ccc(Cl)cc4)CC3)C2=O)cc1 (stereo not shown)	10.7
Fc1ccccc1Nc1nc(NCc2ccco2)nc(N2CCOCC2)n1	3.58
Cc1cccnc1NC1CCCCC1	12.2
CCOC(=O)c1nn(-c2ccc(OCC)cc2)c2nc(CC(C)C)c(C#N)c(=O)n12	1.7
O=C(CCl)c1cc2c3c(c1)CC(=O)N3CCC2	17.9
Cc1cc(=O)n2[nH]c(SCc3ccccc3Cl)nc2n1	14.7
CC(C)CC(=O)Nc1ccc(C(=O)COC(=O)C2CCC2)cc1	12.9

Compound	hERG current change (%, negative = inhibition) at 1uM [%]
Cc1cnc(NC(=O)CSc2nc3ccccc3s2)s1	5.3
Cc1ccc2cc(C)c3nnc(SCC(=O)N4CCCc5ccccc54)n3c2c1C	-4.79
CCOC(=O)C1=C(CC)Nc2ccccc2N=C1NC(=O)c1ccc(S(=O)(=O)N2CCOCC2)cc1	11.2
CCCOC(=O)c1ccc(NC(=O)Oc2ccccc2)cc1	3.97
COC(=O)C1=C(c2ccc(C(C)=O)cc2)C[C@@H]2CC[C@H]1N2C(=O)NC1Cc2ccccc2C1	6.19
O=C(/C=C/c1cccs1)NCc1ccc2c(c1)OCO2	5.45
COc1ccc(C(NC(=O)C2CCCCC2)c2c(O)ccc3ccccc23)cc1 (stereo not shown)	8.75
Cc1[nH]c(C)c(S(=O)(=O)N2CCCCC2C)c1C(=O)N1CCCC1 (stereo not shown)	17.4
COc1cccc(NC(=O)CN(C)C(=O)c2cc3c(s2)CCC(C)C3)c1 (stereo not shown)	15.7
O=C(/C=C/c1ccccc1[N+](=O)[O-])OC1CCCCC1=O (stereo not shown)	17.1
Cc1ccc(-c2nnc(NC(=O)CCS(=O)(=O)c3ccc(F)cc3)o2)c(C)c1	-3.88
COc1ccc(CCNC(=O)c2ccc3nc[nH]c3c2)cc1	17.1
O=C(NCCc1csc(-c2cccnc2)n1)c1cccs1	0.779
COc1ccc(N(CC(=O)NC2CCCC2)C(=O)Cn2nnc(-c3ccc(C)cc3)n2)cc1	-4.61
OCC[C@H]1C[C@@H](O)[C@H](O)[C@]2(CCCc3ccccc3O2)O1	11.5
CCSC(C)CC1C/C(=N/O)c2c(CC)noc2C1 (stereo not shown)	1.16
COc1cc(CNc2ncnc3c2[nH]c2ccc(C)cc23)cc(OC)c1	9.57
COC(=O)C(C)Sc1nc2c(c(-c3ccc(OC)cc3)c1C#N)-c1ccccc1C2=O (stereo not shown)	12.5
O=C(CCN1C(=O)c2ccc([N+](=O)[O-])cc2C1=O)Nc1ccccc1C(=O)O	13.7
C[C@H](NC(=O)N1C[C@H]2C[C@@H](C1)c1cccc(=O)n1C2)C(=O)Nc1cccc(F)c1	0.353
COCCN(C(=S)Nc1ccc(OC)c(Cl)c1)C1CCN(C(C)C)CC1	-9.56
COc1ccc(N2CCN(C(=O)C3CCCN3S(=O)(=O)c3cccc4nsnc34)CC2)cc1 (stereo not shown)	10.3
O=C(c1n[nH]c2ccccc12)N1CCN(c2ccc(F)cc2)CC1	1.36
Cc1ccc(S(=O)(=O)Cn2nnnc2CN2CCN(C(=O)c3ccco3)CC2)cc1	-4.51
Cc1nn(C)cc1/C=N/NC(=O)CSc1ccccn1	16.5
CCN1C(=O)[C@H]2[C@@H](c3ccc(-c4ccc(Cl)c(Cl)c4)c(OC)c3)N[C@@](C)(C(=O)OC)[C@H]2C1=O.O=C(O)C(F)(F)F	12.1
CCOc1ccc(OCC)c(NC(=O)CN2CCN(CC(=O)NC(C)C)CC2)c1.Cl	19.1
